Like-named read-outs stand apart in the source and are kept apart here.
How the values were obtained:
Experiment in all cases: cell-based or functional assay
[1] = target: T1, Human IL-12 receptor (human IL-12Rb1 and IL-12Rb2) (human, UniProt P42701 24-662; Q99665 24-862)
[2] = target: T1, Human IL-12 receptor (human IL-12Rb1 …); remark: listed apart in the source
[3] = target: T1, Human IL-12 receptor (human IL-12Rb1 …); remark: listed apart in the source
[4] = target: T1, Human IL-12 receptor (human IL-12Rb1 …); remark: listed apart in the source
[5] = target: T1, Human IL-12 receptor (human IL-12Rb1 …); remark: listed apart in the source
[6] = target: T1, Human IL-12 receptor (human IL-12Rb1 …); remark: listed apart in the source

B1: Bivalent IL-12 fusion protein FP31 (other)
heavy: QVQLVQSGAEVKKPGSSVKVSCKASGGTFSDYYLHWSRQAPGQGLEWMGWIDPENGDTEYAPKFQGRVTITADESTSTAYMELSSLRSEDTAVYYCARNKELRYIDVWGQGTLVTVSSTSGSGRSATPRGASTKGPSVFPLAPCSKSTSGGTAALGCLVKDYFPEPVTVSWNSGALTSGVHTFPAVLQSSGLYSLSSVVTVPSSSLGTQTYICNVNHKPSNTKVDKRVGGGGSGGGGS[human IgG1 Fc with changes cut from this listing]GSGGSGGSGGSGGSGGSIWELKKDVYVVELDWPPDAPGEMVVLTCDTPEEDGITWTLDQSSEVLGSGKTLTIQVKEFGDAGQYTCHKGGEVLSHSLLLLHKKEDGIWSTDILKDQKEPKNKTFLRCEAKNYSGRFTCWWLTTISTDLTFSVKSSRGSSDPQGVTCGAATLSAERVRGDNKEYEYSVECQEDSACPAAEESLPIEVMVDAVHKLKYENYTSSFFIRDIIKPDPPKNLQLKPLKNSRQVEVSWEYPDTWSTPHSYFSLTFCVQVQGKHKEKKDRVFTDKTSATVICRKNASISVRAQDRYYSSSWSEWASVPCSGGGGSGGGGSGGGGSGGGGSNLPVATPDPGMFPCLHHSQNLLRAVSNMLQKARQTLEFYPCTSEEIDHEDITKDKTSTVEACLPLELTKNESCLNSRETSFITNGSCLASRKTSFMMALCLSSIYEDLKMYQVEFKTMNAKLLMDPKRQIFLDQNMLAVIDELMQALNFNSETVPQKSSLEEPDFYKTKIKLCILLHAFRIRAVTIDRVMSYLNAS
light: DIVMTQSPLSLPVTPGEPASISCRASQSISINLHWYQQKPGQAPRQLIAFASQSISGVPSRFSGSGSGTDFTLTISSLQPEDFATYYCQQSNSFPLTFGQGTKVEIKRTVAAPSVFIFPPSDEQLKSGTASVVCLLNNFYPREAKVQWKVDNALQSGNSQESVTEQDSKDSTYSLSSTLTLSKADYEKHKVYACEVTHQGLSSPVTKSFNRGEC
Improvement in window against FP14, IFN gamma release by human PBMC [1]: ≤ 5.8 fold | Improvement in window against FP14, IL-12 luciferase assay [1]: > 25 fold | Fold change (window), Donor 1, IFN gamma release by human PBMC [2]: 271 fold | Fold change (window), Donor 2, IFN gamma release by human PBMC [2]: 235 fold | Fold change (window), Donor 3, IFN gamma release by human PBMC [2]: 319 fold | Fold change (window), IL-12 luciferase assay [3]: 583 fold

B2: Bivalent IL-12 fusion protein FP15 (other)
heavy: QVQLVQSGAEVKKPGSSVKVSCKASGGTFSDYYLHWSRQAPGQGLEWMGWIDPENGDTEYAPKFQGRVTITADESTSTAYMELSSLRSEDTAVYYCARNKELRYIDVWGQGTLVTVSSYSATGRSANPRGASTKGPSVFPLAPCSKSTSGGTAALGCLVKDYFPEPVTVSWNSGALTSGVHTFPAVLQSSGLYSLSSVVTVPSSSLGTQTYICNVNHKPSNTKVDKRVGGGGSGGGGS[human IgG1 Fc with changes cut from this listing]GSGGSGGSGGSGGSGGSIWELKKDVYVVELDWYPDAPGEMVVLTCDTPEEDGITWTLDQSSEVLGSGKTLTIQVKEFGDAGQYTCHKGGEVLSHSLLLLHKKEDGIWSTDILKDQKEPKNKTFLRCEAKNYSGRFTCWWLTTISTDLTFSVKSSRGSSDPQGVTCGAATLSAERVRGDNKEYEYSVECQEDSACPAAEESLPIEVMVDAVHKLKYENYTSSFFIRDIIKPDPPKNLQLKPLKNSRQVEVSWEYPDTWSTPHSYFSLTFCVQVQGKHKEKKDRVFTDKTSATVICRKNASISVRAQDRYYSSSWSEWASVPCSGGGGSGGGGSGGGGSGGGGSNLPVATPDPGMFPCLHHSQNLLRAVSNMLQKARQTLEFYPCTSEEIDHEDITKDKTSTVEACLPLELTKNESCLNSRETSFITNGSCLASRKTSFMMALCLSSIYEDLKMYQVEFKTMNAKLLMDPKRQIFLDQNMLAVIDELMQALNFNSETVPQKSSLEEPDFYKTKIKLCILLHAFRIRAVTIDRVMSYLNAS
light: B1 light
Fold change (window), IL-12 luciferase assay [4]: 15.6 fold

B3: Bivalent IL-12 fusion protein FP11 (Ab101H89-12aa-C4-L4-IL12006v1.KHKE//Ab102L69-SK1) (other)
heavy: QVQLVQSGAEVKKPGSSVKVSCKASGGTFSDYYLHWSRQAPGQGLEWMGWIDPENGDTEYAPKFQGRVTITADESTSTAYMELSSLRSEDTAVYYCARNKELRYIDVWGQGTLVTVSSTSTSGRSANPRGASTKGPSVFPLAPCSKSTSGGTAALGCLVKDYFPEPVTVSWNSGALTSGVHTFPAVLQSSGLYSLSSVVTVPSSSLGTQTYICNVNHKPSNTKVDKRVGGGGSGGGGS[human IgG1 Fc with changes cut from this listing]GSGGSGGSGGSGGSGGSIWELKKDVYVVELDWYPDAPGEMVVLTCDTPEEDGITWTLDQSSEVLGSGKTLTIQVKEFGDAGQYTCHKGGEVLSHSLLLLHKKEDGIWSTDILKDQKEPKNKTFLRCEAKQYSGRFTCWWLTTISTDLTFSVKSSRGSSDPQGVTCGAATLSAERVRGDNKEYEYSVECQEDSACPAAEESLPIEVMVDAVHKLKYEQYTSSFFIRDIIKPDPPKNLQLKPLKNSRQVEVSWEYPDTWSTPHSYFSLTFCVQVQGKHKEKKDRVFTDKTSATVICRKNASISVRAQDRYYSSSWSEWASVPCSGGGGSGGGGSGGGGSGGGGSNLPVAAPDPGMFPCLHHSQNLLRAVSNMLQKARQTLEFYPCTSEEIDHEDITKDKTSTVEACLPLELTKQESCLNSRETSFITQGSCLASRKTSFMMALCLSSIYEDLKMYQVEFKTMNAKLLMDPKRQIFLDQNMLAVIDELMQALNFNSETVPQKSSLEEPDFYKTKIKLCILLHAFRIRAVTIDRVMSYLQAS
light: B1 light
EC50 (read off the curve), IL-12 luciferase reporter assay (+ MTSP1) [middle graph] [5]: ~0.3 nM | EC50 (read off the curve), IL-12 luciferase reporter assay (without protease) [middle graph] [5]: ~6 nM

B4: Bivalent IL-12 fusion protein FP14 (Ab101H89-12aa0054-C4-L4-IL12v1.KHKE/Ab102L69-SK1) (other)
heavy: QVQLVQSGAEVKKPGSSVKVSCKASGGTFSDYYLHWSRQAPGQGLEWMGWIDPENGDTEYAPKFQGRVTITADESTSTAYMELSSLRSEDTAVYYCARNKELRYIDVWGQGTLVTVSSTSGSGRSATPRGASTKGPSVFPLAPCSKSTSGGTAALGCLVKDYFPEPVTVSWNSGALTSGVHTFPAVLQSSGLYSLSSVVTVPSSSLGTQTYICNVNHKPSNTKVDKRVGGGGSGGGGS[human IgG1 Fc with changes cut from this listing]GSGGSGGSGGSGGSGGSIWELKKDVYVVELDWYPDAPGEMVVLTCDTPEEDGITWTLDQSSEVLGSGKTLTIQVKEFGDAGQYTCHKGGEVLSHSLLLLHKKEDGIWSTDILKDQKEPKNKTFLRCEAKNYSGRFTCWWLTTISTDLTFSVKSSRGSSDPQGVTCGAATLSAERVRGDNKEYEYSVECQEDSACPAAEESLPIEVMVDAVHKLKYENYTSSFFIRDIIKPDPPKNLQLKPLKNSRQVEVSWEYPDTWSTPHSYFSLTFCVQVQGKHKEKKDRVFTDKTSATVICRKNASISVRAQDRYYSSSWSEWASVPCSGGGGSGGGGSGGGGSGGGGSNLPVATPDPGMFPCLHHSQNLLRAVSNMLQKARQTLEFYPCTSEEIDHEDITKDKTSTVEACLPLELTKNESCLNSRETSFITNGSCLASRKTSFMMALCLSSIYEDLKMYQVEFKTMNAKLLMDPKRQIFLDQNMLAVIDELMQALNFNSETVPQKSSLEEPDFYKTKIKLCILLHAFRIRAVTIDRVMSYLNAS
light: B1 light
Fold change (window), Donor 1, IFN gamma release by human PBMC [2]: 94.4 fold | Fold change (window), Donor 2, IFN gamma release by human PBMC [2]: 113 fold | Fold change (window), Donor 3, IFN gamma release by human PBMC [2]: 54.9 fold | Fold change (window), IL-12 luciferase assay [4]: 34.7 fold | Fold change (window), IL-12 luciferase assay [6]: 43.1 fold | Fold change (window), IL-12 luciferase assay [3]: 23 fold
